Experimental data: the supplement of paper PMC10037445
Where “and” joins values, the source holds several entries; their conditions need not be identical. Equal entries are not always repeated. In all, about 2,900 compounds were measured (“NF-kB SEAP reporter activity, fold change vs agonist alone”: median about 0.99, highest 2% from about 2.6 on). The list shows a part of the results.

Experiments:
[1] = test system: RAW-Dual; assay: NF-kB SEAP reporter activity, fold change vs agonist alone; cytotoxicity flag (confluency mask): not cytotoxic; higher = enhanced NF-kB activity
Outline: (§1)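 Library stock was pin-tooled at 50 nL into 384-well plates of RAW-Dual macrophages (50,000 cells/well, DMEM), followed 1 h later by a PRR agonist, and the cells were kept at 37 °C, 5% CO2. Supernatant collected after 20 hours was read for IRF by QuantiLuc luminescence and for NF-κB by QuantiBlue absorbance at 620 nm. Reporter activity is fold change over agonist-alone wells, and a well counted as cytotoxic when its IncuCyte confluency was below 70% of agonist controls in both mask sets.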

[2] = test system: RAW-Dual; assay: NF-kB SEAP reporter activity, fold change vs agonist alone; higher = enhanced NF-kB activity
Outline: as §1

[3] = test system: RAW-Dual; assay: NF-kB SEAP reporter activity, fold change vs agonist alone; cytotoxicity flag (confluency mask): cytotoxic (confluency <70% of control); higher = enhanced NF-kB activity
Outline: as §1

[4] = agonist: ODN 1826 (TLR9) 0.5 ug/mL
[5] = agonist: Pam2CSK4 (TLR2/6) 0.1 ug/mL
[6] = agonist: Pam3CSK4 (TLR2/1) 0.1 ug/mL
[7] = library stock concentration (final ~1000-fold dilution): 10 mM, cytotoxicity flag (confluency mask): cytotoxic (confluency <70% of control), agonist: Imiquimod (TLR7) […]
[8] = library stock concentration (final ~1000-fold dilution): 10 mM, cytotoxicity flag (confluency mask): cytotoxic (confluency <70% of control), agonist: MPLA (TLR4) […]
[9] = library stock concentration (final ~1000-fold dilution): 10 mM, cytotoxicity flag (confluency mask): not cytotoxic, agonist: Imiquimod (TLR7) […]
[10] = library stock concentration (final ~1000-fold dilution): 10 mM, cytotoxicity flag (confluency mask): not cytotoxic, agonist: MPLA (TLR4) […]

With `CC(C)(C)N.CCCC(NC(C)C(=O)N1C(C(=O)O)CC2CCCCC21)C(=O)OCC` (stereo unspecified) (library stock concentration (final ~1000-fold dilution): 10 mM water) the “NF-kB SEAP reporter activity” value ([1]; agonist: LPS (TLR4) 0.1 ug/mL) was 1.05, the “NF-kB SEAP reporter activity” value [1, 4] was 1.13 and the “NF-kB SEAP reporter activity” value [1, 5] was 1.17. The “NF-kB SEAP reporter activity” value [1, 6] was 1.02.

For `CC(C)(C)N.CCCC(NC(C)C(=O)N1C(C(=O)O)CC2CCCCC21)C(=O)OCC` (stereo unspecified), the “NF-kB SEAP reporter activity” value ([2]; library stock concentration (final ~1000-fold dilution): 10 mM water, cytotoxicity flag (confluency mask): not cytotoxic, agonist: Imiquimod (TLR7) […]) was 0.909 and the “NF-kB SEAP reporter activity” value ([2]; library stock concentration (final ~1000-fold dilution): 10 mM water, cytotoxicity flag (confluency mask): not cytotoxic, agonist: MPLA (TLR4) […]) was 1.04.

For `CN1CCc2cc3c(cc2C(=O)Cc2ccc4c(c2C1)OCO4)OCO3` (library stock concentration (final ~1000-fold dilution): 10 mM), the “NF-kB SEAP reporter activity” value ([1]; agonist: LPS (TLR4) 0.1 ug/mL) was 0.908 and 0.875, the “NF-kB SEAP reporter activity” value [1, 4] was 1.01 and 0.566 and the “NF-kB SEAP reporter activity” value [1, 5] was 1.02 and 0.937. The “NF-kB SEAP reporter activity” value [1, 6] was 0.925 and 0.685.

For `C=CC(=O)Nc1cc(C)ccc1Nc1nc(Nc2cc(OC)ncc2C)ncc1C(F)(F)F` (library stock concentration (final ~1000-fold dilution): 10 mM), the “NF-kB SEAP reporter activity” value ([3]; agonist: LPS (TLR4) 0.1 ug/mL) was 0.389, the “NF-kB SEAP reporter activity” value [3, 4] was 0.177 and the “NF-kB SEAP reporter activity” value [3, 5] was 0.0907. For the same compound, the “NF-kB SEAP reporter activity” value [3, 6] was 0.134.

In the case of `C=CC(=O)Nc1cc(C)ccc1Nc1nc(Nc2cc(OC)ncc2C)ncc1C(F)(F)F`, the “NF-kB SEAP reporter activity” value [2, 7] is reported as 0.135 and the “NF-kB SEAP reporter activity” value [2, 8] is reported as 0.269.

For `Cc1cc2c(F)c(Oc3ncnn4cc(OCC(C)O)c(C)c34)ccc2[nH]1` (stereo unspecified) (library stock concentration (final ~1000-fold dilution): 10 mM), the “NF-kB SEAP reporter activity” value ([1]; agonist: LPS (TLR4) 0.1 ug/mL) was 1.8, the “NF-kB SEAP reporter activity” value [1, 4] was 0.986 and the “NF-kB SEAP reporter activity” value [1, 5] was 0.77. For the same compound, the “NF-kB SEAP reporter activity” value [1, 6] was 1.18.

With `Cc1cc2c(F)c(Oc3ncnn4cc(OCC(C)O)c(C)c34)ccc2[nH]1` (stereo unspecified) the “NF-kB SEAP reporter activity” value [2, 9] was 2.01 and the “NF-kB SEAP reporter activity” value [2, 10] was 1.39.

`CC1(C)CC(=O)c2c(C(F)(F)F)nn(-c3ccc(C(N)=O)c(NC4CCC(OC(=O)CN)CC4)c3)c2C1` (stereo unspecified) was tested, and the “NF-kB SEAP reporter activity” value [2, 9] was 0.916 and the “NF-kB SEAP reporter activity” value [2, 10] was 0.907.

`CC1(C)CC(=O)c2c(C(F)(F)F)nn(-c3ccc(C(N)=O)c(NC4CCC(OC(=O)CN)CC4)c3)c2C1` (stereo unspecified) (library stock concentration (final ~1000-fold dilution): 10 mM) was tested, and the “NF-kB SEAP reporter activity” value ([1]; agonist: LPS (TLR4) 0.1 ug/mL) was 0.226, the “NF-kB SEAP reporter activity” value [1, 4] was 0.929 and the “NF-kB SEAP reporter activity” value [1, 5] was 0.113. For the same compound, the “NF-kB SEAP reporter activity” value [1, 6] was 0.234.

`CC(NC(=O)/C(C#N)=C/c1cccc(Br)n1)c1ccccc1` (stereo unspecified) (library stock concentration (final ~1000-fold dilution): 10 mM) was tested, and the “NF-kB SEAP reporter activity” value ([3]; agonist: LPS (TLR4) 0.1 ug/mL) was 0.233, the “NF-kB SEAP reporter activity” value [3, 4] was 0.186 and the “NF-kB SEAP reporter activity” value [3, 5] was 0.0992. The “NF-kB SEAP reporter activity” value [3, 6] was 0.136.

With `CC(NC(=O)/C(C#N)=C/c1cccc(Br)n1)c1ccccc1` (stereo unspecified) the “NF-kB SEAP reporter activity” value [2, 7] was 0.268 and the “NF-kB SEAP reporter activity” value [2, 8] was 0.204.

For `CCN(CC)CCNC(=O)c1cc(S(C)(=O)=O)ccc1OC.Cl` (library stock concentration (final ~1000-fold dilution): 10 mM), the “NF-kB SEAP reporter activity” value ([1]; agonist: LPS (TLR4) 0.1 ug/mL) was 1.26, the “NF-kB SEAP reporter activity” value [1, 4] was 0.906 and the “NF-kB SEAP reporter activity” value [1, 5] was 1.08. The “NF-kB SEAP reporter activity” value [1, 6] was 0.986.

For `CCN(CC)CCNC(=O)c1cc(S(C)(=O)=O)ccc1OC.Cl`, the “NF-kB SEAP reporter activity” value [2, 9] was 0.937 and the “NF-kB SEAP reporter activity” value [2, 10] was 1.08.

`CC(C)CNc1ccnc(NCc2csc(-c3ccccc3)n2)n1.Cl` was tested, and the “NF-kB SEAP reporter activity” value [2, 7] was 1.85 and the “NF-kB SEAP reporter activity” value [2, 8] was 1.47.

In the case of `CC(C)CNc1ccnc(NCc2csc(-c3ccccc3)n2)n1.Cl` (library stock concentration (final ~1000-fold dilution): 10 mM), the “NF-kB SEAP reporter activity” value ([3]; agonist: LPS (TLR4) 0.1 ug/mL) is reported as 1.62, the “NF-kB SEAP reporter activity” value [3, 4] is reported as 0.221 and the “NF-kB SEAP reporter activity” value [3, 5] is reported as 0.625. The “NF-kB SEAP reporter activity” value [3, 6] was 0.446.

With `Cl.Clc1ccc(CCCOCCCN2CCCCC2)cc1` (library stock concentration (final ~1000-fold dilution): 10 mM) the “NF-kB SEAP reporter activity” value ([1]; agonist: LPS (TLR4) 0.1 ug/mL) was 0.95, the “NF-kB SEAP reporter activity” value [1, 4] was 0.796 and the “NF-kB SEAP reporter activity” value [1, 5] was 1.01. For the same compound, the “NF-kB SEAP reporter activity” value [1, 6] was 0.795.

With `Cl.Clc1ccc(CCCOCCCN2CCCCC2)cc1` the “NF-kB SEAP reporter activity” value [2, 9] was 0.898 and the “NF-kB SEAP reporter activity” value [2, 10] was 1.07.

In the case of `COc1ccc(-c2cc(=O)c3c(O)cc(O)cc3o2)cc1O`, the “NF-kB SEAP reporter activity” value [2, 9] is reported as 2.16 and the “NF-kB SEAP reporter activity” value [2, 10] is reported as 1.32.

In the case of `COc1ccc(-c2cc(=O)c3c(O)cc(O)cc3o2)cc1O` (library stock concentration (final ~1000-fold dilution): 10 mM), the “NF-kB SEAP reporter activity” value ([1]; agonist: LPS (TLR4) 0.1 ug/mL) is reported as 1.59, the “NF-kB SEAP reporter activity” value [1, 4] is reported as 1.32 and the “NF-kB SEAP reporter activity” value [1, 5] is reported as 1.23. The “NF-kB SEAP reporter activity” value [1, 6] was 1.2.

In the case of `CCN(CC)CC#CCOC(=O)C(O)(c1ccccc1)C1CCCCC1` (stereo unspecified), the “NF-kB SEAP reporter activity” value [2, 9] is reported as 1.71 and the “NF-kB SEAP reporter activity” value [2, 10] is reported as 1.37.

For `CCN(CC)CC#CCOC(=O)C(O)(c1ccccc1)C1CCCCC1` (stereo unspecified) (library stock concentration (final ~1000-fold dilution): 10 mM), the “NF-kB SEAP reporter activity” value ([1]; agonist: LPS (TLR4) 0.1 ug/mL) was 1.59, the “NF-kB SEAP reporter activity” value [1, 4] was 1.11 and the “NF-kB SEAP reporter activity” value [1, 5] was 0.998. The “NF-kB SEAP reporter activity” value [1, 6] was 1.28.

For `O=C(Cc1cccc(OC(F)(F)F)c1)Nc1ccc(CCCCc2nnc(NC(=O)Cc3ccccn3)s2)nn1`, the “NF-kB SEAP reporter activity” value [2, 9] was 0.884 and the “NF-kB SEAP reporter activity” value [2, 10] was 1.29.

In the case of `O=C(Cc1cccc(OC(F)(F)F)c1)Nc1ccc(CCCCc2nnc(NC(=O)Cc3ccccn3)s2)nn1` (library stock concentration (final ~1000-fold dilution): 10 mM), the “NF-kB SEAP reporter activity” value ([1]; agonist: LPS (TLR4) 0.1 ug/mL) is reported as 1.33, the “NF-kB SEAP reporter activity” value [1, 4] is reported as 0.805 and the “NF-kB SEAP reporter activity” value [1, 5] is reported as 0.518. For the same compound, the “NF-kB SEAP reporter activity” value [1, 6] was 0.624.

`CC(C)Nc1cccnc1N1CCN(C(=O)c2cc3cc(NS(C)(=O)=O)ccc3[nH]2)CC1.CS(=O)(=O)O` (library stock concentration (final ~1000-fold dilution): 10 mM) was tested, and the “NF-kB SEAP reporter activity” value ([1]; agonist: LPS (TLR4) 0.1 ug/mL) was 1.31, the “NF-kB SEAP reporter activity” value [1, 4] was 1.09 and the “NF-kB SEAP reporter activity” value [1, 5] was 0.93. For the same compound, the “NF-kB SEAP reporter activity” value [1, 6] was 0.697.

For `CC(C)Nc1cccnc1N1CCN(C(=O)c2cc3cc(NS(C)(=O)=O)ccc3[nH]2)CC1.CS(=O)(=O)O`, the “NF-kB SEAP reporter activity” value [2, 9] was 1.13 and the “NF-kB SEAP reporter activity” value [2, 10] was 1.06.
